Measurements as given in PubChem BioAssay AID1963576 (National Center for Advancing Translational Sciences (NCATS), 2024).
The campaign covered roughly 46,000 compounds. About 60 (0.1%) were called active. Inconclusive results (about 3%) are left out. Calls come from the whole dose curve; as a rule, active = well fitted inhibition curve with a large enough effect; inconclusive = small, poorly fitted or top-dose-only effect; inactive = no such curve, though single readings can be large or run the other way. The list shows a part of the results.

Test: Primary qHTS assay for Inhibitors of ovarian cancer metastasis using an organotypic tumor microenvironment (TME) model.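 For activity change, negative = inhibition: plate controls were DMSO wells for no effect and tomatine positive control wells for full effect.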 Note: nearly all actives have a fitted effect of over 65% in size.
Details: SKOV3ip1-GFP adhesion/invasion on 3D omental model, fluorescence; series mostly up to 45.8 µM; activity change, negative = inhibition: at the top concentration
In short: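 A 3D layer of primary human omental fibroblasts, mesothelial cells, fibronectin and collagen I, grown 48 hr, received SKOV3ip1-GFP cells in serum-free medium plus compounds at 0.36-46 umol/L. After 2 hr RT and 16 hr 37 C, fixed adherent GFP cells were counted; normalized to DMSO and tomatine.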

| Structure (SMILES) | outcome | activity change, negative = inhibition |
| --- | --- | --- |
| COC(=O)CC1Oc2ccc(F)cc2-n2cc(-c3ccc(Cl)cc3)nc21 (stereo not drawn) | inactive |  |
| CC(=O)Nc1ccc(NS(=O)(=O)c2ccc3c(c2)CC(C)N3C(=O)C2CCC2)cc1 (stereo not drawn) |  | inactive: 7.79% |
| COc1ccc(-c2nc3c4cnn(-c5ccccc5F)c4ncn3n2)cc1 |  | inactive: -7.37% |
| CCN(Cc1ccccc1)C(=O)Cn1c(=O)n(-c2ccc(F)c(Cl)c2)c(=O)c2sc3ccccc3c21 |  | inactive: 22.3% |
| COc1ccc(N2CCN(S(=O)(=O)c3csc(C(N)=O)c3)CC2)cc1 |  | inactive: 12.7% |
| Cc1cccc(C)c1OCCSc1nc2ccccc2n1CC(=O)O |  | inactive: 31.2% |
| O=C(Nc1cccc(-c2nc3ccccc3o2)c1)c1cc([N+](=O)[O-])ccc1N1CCOCC1 | inactive |  |
| CCOc1cc(CNC(=O)c2ccc3c(c2)N(C)C(=O)C2CCCCN32)cc(OCC)c1OCC (stereo not drawn) | inactive |  |
| O=C(Nc1ccc(F)cc1F)c1cc2c(=O)n3ccccc3nc2s1 |  | inactive: -0.22% |
| CSc1ccc(CCNC(=O)c2ccc(CS(=O)(=O)c3ccc(Br)cc3)o2)cc1 |  | inactive: 0.367% |
| COCCNC(=O)c1cccc(Nc2nc3ccccc3n3nnnc23)c1 |  | inactive: -8.55% |
| CCc1cccc(NC(=O)CCc2nc3cccnc3n2-c2ccccc2)c1 |  | inactive: 12.8% |
| Cc1cccc(N2CC(C)Cn3c2nc2c3c(=O)n(CC(=O)O)c(=O)n2C)c1 (stereo not drawn) |  | inactive: 4.95% |
| Cc1ccc(-n2nc(C)c3c(C(=O)NCc4ccc(F)cc4)cc(C)nc32)cc1 |  | inactive: -10.9% |
| O=c1c2sc3ccccc3c2n(Cc2cccc(C(F)(F)F)c2)c(=O)n1Cc1ccccc1 |  | inactive: -7.07% |
| Cc1c(Cl)cccc1N1C(N)=C(C#N)C(c2cc(CN3CCOCC3)cs2)C2=C1CCCC2=O (stereo not drawn) | inactive |  |
| COc1ccc(NC(=O)CSc2nc(-c3cccs3)cc(C(F)(F)F)c2C#N)cc1 |  | inactive: 0.163% |
| COc1ccc(CNC(=O)c2cc3cc(S(=O)(=O)N4CCCCC4)ccc3n2C)c(OC)c1 |  | inactive: -7.92% |
| O=C1N(Cc2cccc(C(F)(F)F)c2)c2ccccc2S(=O)(=O)N1c1cccc(Cl)c1 |  | inactive: 14.8% |
| COc1ccc(NC(=O)CCc2c(C)nc3c(c2C)c(=O)n(C)c(=O)n3C)cc1OC | inactive |  |
| CC1CCc2c(sc(NC(=O)c3ccc(Cl)cc3Cl)c2C#N)C1 (stereo not drawn) |  | inactive: 6.76% |
| CCOC(=O)N1CCc2c(sc(NCc3ccc(N(C)C)cc3)c2C(=O)Nc2ccc(OC)cc2)C1 | inactive |  |
| Cc1cc(F)ccc1NC(=O)CN(C)S(=O)(=O)c1ccc(C(=O)N2CCOCC2)s1 | inactive |  |
| N#Cc1c(C(F)(F)F)cc(-c2cccs2)nc1SCC(=O)Nc1ccc(F)cc1 |  | inactive: -22.6% |

| Structure (SMILES) | outcome | activity change, negative = inhibition |
| --- | --- | --- |
| CCOc1ccc(NC(=O)c2c(NCc3sccc3C)sc3c2CCCCC3)cc1 | inactive |  |
| COc1ccc(CNC(=O)c2ccc3c(c2)N(Cc2ccccc2F)C(=O)c2ccccc2S3(=O)=O)cc1 | inactive |  |
| CCN(CC)C(=O)CSc1nc2cc3c(cc2c(=O)n1CCCCCC(=O)NCCc1ccc(OC)c(OC)c1)OCO3 | inactive |  |
| O=C(CN1C(=O)C2(CCCC2)NC[C@H]1c1cc(F)cc(F)c1)Nc1ccc2c(c1)C[C@@]1(C2)C(=O)Nc2ncccc21 |  | inactive: 5.04% |
| O=C(COc1ccc([N+](=O)[O-])cc1)Nc1cccc2cccnc12 | inactive |  |
| COc1ccc(OCc2ccc(-c3nc(C#N)c(N4CCN(c5cccc(Cl)c5)CC4)o3)o2)cc1 |  | inactive: -13% |
| O=C(CSc1nc2c([nH]c3ccccc32)c(=O)n1-c1ccc(F)cc1)NC1CCCCC1 | inactive |  |
| CCc1ccccc1NC(=O)CSC1=Nc2ccccc2C2=NC(Cc3ccccc3)C(=O)N12 (stereo not drawn) |  | inactive: -18.1% |
| CCCN(CCC)c1nc(-c2ccccc2F)nc2ccccc12 |  | inactive: -2.51% |
| COc1ccc(-c2nc(SCC(=O)c3ccc(OC)c(Br)c3)n[nH]2)cc1 |  | inactive: 8.98% |
| CCC(C(=O)OC)n1cnc2c(cnn2-c2ccc(F)cc2)c1=O (stereo not drawn) |  | inactive: -4.17% |
| COc1cc(Cl)c(C)cc1NC(=O)Cn1ncc2c(=O)oc3ccccc3c21 | inactive |  |
| COc1cc(NC(=O)C2CCCN(S(=O)(=O)c3ccc4c(c3)CCCC(=O)N4)C2)cc(OC)c1 (stereo not drawn) | inactive |  |
| CCc1cccc(NC(=O)C2CCC(CNS(=O)(=O)c3csc(C(N)=O)c3)CC2)c1 (stereo not drawn) |  | inactive: 6.56% |
| CCOc1cccc(C2c3[nH]c4ccccc4c3CCN2C(=O)CCC2CCCC2)c1 (stereo not drawn) |  | inactive: 9.98% |
| CCC(Sc1nc2nccnc2c(=O)n1Cc1ccc(F)cc1)C(=O)NC1CCCCC1 (stereo not drawn) | inactive |  |
| CSc1ncc(Cl)c(C(=O)Nc2ccc(S(=O)(=O)N3CCCC(C)C3)cc2)n1 (stereo not drawn) |  | inactive: 26.4% |
| COc1ccc(C(=O)Nc2ccc(OCc3cc(=O)n4ccsc4n3)cc2)cc1OC | inactive |  |
| COc1ccc2cc(C(=O)NCc3ccc4c(c3)CCN4C(=O)c3ccccc3)[nH]c2c1 |  | inactive: -7.58% |
| CCn1c(=O)cc(SCC(=O)NCc2ccccc2OC)c2ccccc21 |  | inactive: 5.02% |
| Cc1cccc(C(=O)NC(=O)Nc2ccc(-c3cc(C(F)(F)F)nn3-c3ccccc3)cc2)c1 |  | inactive: -4.68% |
| CCc1ccc(CNC(=O)c2cnc3sc(N4CCCCC4)nn3c2=O)cc1 |  | inactive: 3.29% |
| Cc1ccc(NC(=O)Cn2cnc3nc4c(cc3c2=O)CCCC4)cc1Cl |  | inactive: -18.1% |
| Cc1cc(=O)n2nc(N3CCC(C(=O)NCc4ccccc4)CC3)sc2n1 | inactive |  |

| Structure (SMILES) | outcome | activity change, negative = inhibition |
| --- | --- | --- |
| CC(C)(C)OC(=O)N1CCC(c2c(C(=O)NCc3ccco3)cnn2-c2ccccc2)CC1 |  | inactive: -2.3% |
| CCc1ccc(S(=O)(=O)Nc2cccc(-c3ccc(N4CCC(C)CC4)nn3)c2)s1 |  | inactive: 4.23% |
| Cc1cc(NC(=O)NCc2ccc3c(c2)CCN3C(=O)c2ccccc2)ccc1Br |  | inactive: 5.13% |
| CCOc1ccc(S(=O)(=O)c2cn(Cc3ccccc3)c3ccc(OCC)cc3c2=O)cc1 |  | inactive: -4.91% |
| Cc1nn(-c2ccc(F)cc2)c(-n2cccc2)c1C(=O)NCCCN1CCN(c2cccc(Cl)c2)CC1 |  | inactive: 28.7% |
| CCOC(=O)c1sc2ccccc2c1S(=O)(=O)N1CCN(c2cccc(C)c2C)CC1 |  | inactive: 0.658% |
| O=C(C1CCN(S(=O)(=O)c2cccc3nonc23)CC1)N1CCN(c2ccccc2F)CC1 | inactive |  |
| Cc1cc(C)c2c(=O)cc(C(=O)Nc3ccc(S(=O)(=O)N(C)Cc4ccccc4)cc3)oc2c1 |  | inactive: -7.26% |
| O=C(Cn1cc(C(=O)c2ccco2)c2ccccc21)Nc1ccccc1Cl |  | inactive: -7.18% |
| O=C(NCc1cccnc1)C(=O)NCC(c1cccnc1)N1CCN(c2ccccc2F)CC1 (stereo not drawn) |  | inactive: 3.96% |
| Cc1ccc(/C=C/C(=O)Nc2ccc(S(N)(=O)=O)cc2)o1 |  | inactive: 9.97% |
| CCN1CCN(C(=O)Cn2ncc3c4ccccc4n(Cc4ccccc4)c3c2=O)CC1 | inactive |  |
| Cc1ccc(-c2cc(NC(=O)COc3ccc(Cl)c(C)c3)on2)cc1 |  | inactive: 1.03% |
| Cc1cc(C)c(NC(=O)CN2C(=O)c3cccnc3Oc3ccc(C)cc32)c(C)c1 |  | inactive: -3.61% |
| Cc1ccc(C(c2ccccc2)c2c(C)[nH]c3ccccc23)s1 (stereo not drawn) |  | inactive: -8.01% |
| Nc1nnc(SCC(=O)Nc2ccccc2)s1 |  | inactive: -4.22% |
| COc1ccccc1CCNC(=O)C(=O)NCC(c1cccs1)S(=O)(=O)c1ccccc1 (stereo not drawn) |  | inactive: 8.45% |
| CCOC(=O)c1cccc(NC(=O)c2cn(-c3cccc(OC)c3)c(=O)c3ccccc23)c1 |  | inactive: -4.5% |
| O=C(CCS(=O)(=O)c1ccc(Br)cc1)Nc1ccc(Cl)c(C(F)(F)F)c1 | inactive |  |
| Cn1cncc1[C@@](N)(c1ccc(Cl)cc1)c1ccc2c(c1)c(-c1cccc(Cl)c1)cc(=O)n2C |  | inactive: -2.23% |
| Cc1cc(C)c(Cn2c3ccccc3c3cnn(CC(=O)NCc4ccccn4)c(=O)c32)c(C)c1 |  | inactive: -25.5% |
| COc1ccc(-c2cc(C(F)(F)F)nc(-n3nc(C(F)(F)F)cc3C)n2)cc1 |  | inactive: -15.7% |
| Cc1cccc(-c2nc3nc(C)cc(NCc4ccccc4Cl)n3n2)c1 |  | inactive: -10.2% |
| COc1cc(NC(=O)N(Cc2ccco2)C2CCN(C(C)=O)CC2)cc(OC)c1OC |  | inactive: -11.9% |

| Structure (SMILES) | outcome | activity change, negative = inhibition |
| --- | --- | --- |
| Cc1ccccc1NC(=O)C1CCN(C(=O)c2cnn(-c3ccccc3)c2-n2cccc2)CC1 | inactive |  |
| Cc1cccc(Cn2c(=O)n(Cc3ccccc3)c(=O)c3oc4ccccc4c32)c1 |  | inactive: 0.143% |
| Cc1ccc(Sc2ccc(N3CCC(C(=O)Nc4ccc(C)c(F)c4)CC3)nn2)cc1 |  | inactive: 4.92% |
| CC(C)OCCCNC(=O)C(=O)Nc1ccc2nc3n(c(=O)c2c1)CCCCC3 |  | inactive: 6.79% |
| Fc1cc(F)c2ncc3c(-c4ccccc4)nn(-c4cccc(Cl)c4)c3c2c1 | inactive |  |
| O=C(NCC(c1cccs1)S(=O)(=O)c1cccs1)c1ccc(Cl)cc1 (stereo not drawn) |  | inactive: -5.96% |
| Cc1ccc(-n2c(SCC(=O)NCc3ccccc3)nc3n[nH]c(C)c3c2=N)cc1Cl |  | inactive: -1.8% |
| CCc1ccc(-n2c(N3CCN(c4cccc(Cl)c4)CC3)nc3ccccc3c2=O)cc1 |  | inactive: 8.09% |
| CC1CCN(c2oc(-c3ccc(COc4ccccc4)o3)nc2C#N)CC1 |  | inactive: 5.42% |
| CC(=O)c1ccc(NC(=O)c2nc(-c3ccccc3)n(-c3ccc(Cl)cc3)n2)cc1 |  | inactive: -7.52% |
| CCOc1ccc(NC(=O)Cn2c(=O)n(Cc3nc(-c4ccccc4)no3)c(=O)c3cc4c(cc32)OCO4)cc1 |  | inactive: 5.17% |
| CC(=O)N1CCc2cc(Br)cc(S(=O)(=O)N3CCC(C)CC3)c21 |  | inactive: 13.3% |
| Cc1ccc(-c2nc3nc(C)cc(C)n3c2Nc2ccc3c(c2)OCCO3)cc1 |  | inactive: -5.47% |
| CC(C)c1cnc2c(c1SCc1cccc(F)c1)c(=O)n(C)c(=O)n2C |  | inactive: 5.6% |
| Cc1ccc(Cn2ccn(CC(=O)Nc3c(C)cc(C)cc3C)c(=O)c2=O)cc1 |  | inactive: -3.73% |
| Cc1nc2nc(NC(=O)C(C)(C)C)[nH]n2c(=O)c1Cc1ccccc1 |  | inactive: -25.8% |
| CCOC(=O)c1cc2c(=O)n3ccccc3nc2n(CCOC)c1=NC(=O)C(C)(C)Oc1ccc(Cl)cc1 |  | inactive: 4.08% |
| COc1cc(NC(=O)C2CCN(S(=O)(=O)c3ccc4c(c3)oc(=O)n4C)CC2)cc(OC)c1 |  | inactive: -0.923% |
| O=C(CSC1=Nc2ccccc2C2=NC(Cc3ccccc3)C(=O)N12)Nc1ccccc1C(F)(F)F (stereo not drawn) |  | inactive: -16.8% |
| COc1ccc(NS(=O)(=O)c2cc3c(cc2C)NC(=O)CO3)c(OC)c1 |  | inactive: 6.98% |
| Cc1noc(-c2ccc(N3CCC(C)CC3)c([N+](=O)[O-])c2)n1 | inactive |  |
